Data published in the supplement of paper PMC4604168 (melanoma cell lines).
The list shows a part of the results. Most values come without repeats; read them as rough.

Tested on: A101D
Assay: cell count relative to DMSO control; melanoma cells; higher = more viable cells
Conditions: library dose: low library concentration; 72 h
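Further: cell number obtained by counting DAPI-stained nuclei in high-throughput microscope images with image analysis software, screen run in 1,536-well plates.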

Row | Compound | cell count
1 | O=C(/C=C/c1cccnc1)NCCCCC1CCN(C(=O)c2ccccc2)CC1 + CC(C)(C)c1cnc(CSc2cnc(NC(=O)C3CCNCC3)s2)o1 [SNS-032] (first compound 0.01 µM, partner dose 0.01 µM) | 86.9%
2 | Cc1ccc(Nc2nccc(N(C)c3ccc4c(C)n(C)nc4c3)n2)cc1S(N)(=O)=O [Pazopanib] + Cn1cncc1[C@@](N)(c1ccc(Cl)cc1)c1ccc2c(c1)c(-c1cccc(Cl)c1)cc(=O)n2C [tipifarnib] (first compound 0.4 µM, partner dose 0.01 µM) | 78%
3 | O=C(/C=C/c1cccnc1)NCCCCC1CCN(C(=O)c2ccccc2)CC1 + C[C@@H]1CCN(C(=O)CC#N)C[C@@H]1N(C)c1ncnc2[nH]ccc12 [CP690550] (first compound 0.01 µM, partner dose 1 µM) | 77.1%
4 | Cc1ccc(Nc2nccc(N(C)c3ccc4c(C)n(C)nc4c3)n2)cc1S(N)(=O)=O [Pazopanib] + COCC[n+]1c2c(n(Cc3cnccn3)c1C)C(=O)c1ccccc1C2=O [YM155] (first compound 0.4 µM, partner dose 0.0004 µM) | 100%
5 | Cc1ccc(Nc2nccc(N(C)c3ccc4c(C)n(C)nc4c3)n2)cc1S(N)(=O)=O [Pazopanib] + CN(NC(=O)CC(=O)NN(C)C(=S)c1ccccc1)C(=S)c1ccccc1 [STA4783] (first compound 0.4 µM, partner dose 0.006 µM) | 77.3%
6 | CC1(C)CCC(c2ccc(Cl)cc2)=C(CN2CCN(c3ccc(C(=O)NS(=O)(=O)c4ccc(N[C@H](CCN5CCOCC5)CSc5ccccc5)c(S(=O)(=O)C(F)(F)F)c4)cc3)CC2)C1 + C=C(c1ccc(C(=O)O)cc1)c1cc2c(cc1C)C(C)(C)CCC2(C)C [Bexarotene] (first compound 0.4 µM, partner dose 2 µM) | 46.8%
7 | Cc1ccc(Nc2nccc(N(C)c3ccc4c(C)n(C)nc4c3)n2)cc1S(N)(=O)=O [Pazopanib] + Nc1ccn([C@@H]2O[C@H](CO)[C@@H](O)C2(F)F)c(=O)n1 [gemcitabine] (first compound 0.4 µM, partner dose 0.0004 µM) | 93.9%
8 | Cc1ccc(Nc2nccc(N(C)c3ccc4c(C)n(C)nc4c3)n2)cc1S(N)(=O)=O [Pazopanib] + Clc1ccc(Nc2nnc(Cc3ccncc3)c3ccccc23)cc1 [vatalanib] (first compound 0.4 µM, partner dose 2 µM) | 86.6%
9 | O=C(/C=C/c1cccnc1)NCCCCC1CCN(C(=O)c2ccccc2)CC1 + CC(C)C[C@H](NC(=O)[C@H](Cc1ccccc1)NC(=O)c1cnccn1)B(O)O [Bortezomib] (first compound 0.01 µM, partner dose 0.001 µM) | 41.2%
10 | CC1(C)CCC(c2ccc(Cl)cc2)=C(CN2CCN(c3ccc(C(=O)NS(=O)(=O)c4ccc(N[C@H](CCN5CCOCC5)CSc5ccccc5)c(S(=O)(=O)C(F)(F)F)c4)cc3)CC2)C1 + O=C(O)c1ccc2c(c1)nc(Nc1cccc(Cl)c1)c1ccncc12 [CX4945] (first compound 0.4 µM, partner dose 0.4 µM) | 50.3%
11 | O=C(/C=C/c1cccnc1)NCCCCC1CCN(C(=O)c2ccccc2)CC1 + Cn1c(Nc2ccc(C(F)(F)F)cc2)nc2cc(Oc3ccnc(-c4ncc(C(F)(F)F)[nH]4)c3)ccc21 [CHIR265] (first compound 0.01 µM, partner dose 0.08 µM) | 63.4%
12 | CC1(C)CCC(c2ccc(Cl)cc2)=C(CN2CCN(c3ccc(C(=O)NS(=O)(=O)c4ccc(N[C@H](CCN5CCOCC5)CSc5ccccc5)c(S(=O)(=O)C(F)(F)F)c4)cc3)CC2)C1 + CO[C@@H]1[C@H](N(C)C(=O)c2ccccc2)C[C@H]2O[C@]1(C)n1c3ccccc3c3c4c(c5c6ccccc6n2c5c31)C(=O)NC4 [Midostaurin] (first compound 0.4 µM, partner dose 0.08 µM) | 52.2%
13 | O=C(/C=C/c1cccnc1)NCCCCC1CCN(C(=O)c2ccccc2)CC1 + C=C(c1ccc(C(=O)O)cc1)c1cc2c(cc1C)C(C)(C)CCC2(C)C [Bexarotene] (first compound 0.01 µM, partner dose 2 µM) | 106%
14 | Cc1ccc(Nc2nccc(N(C)c3ccc4c(C)n(C)nc4c3)n2)cc1S(N)(=O)=O [Pazopanib] + CC(C)C[C@H](NC(=O)[C@H](Cc1ccccc1)NC(=O)c1cnccn1)B(O)O [Bortezomib] (first compound 0.4 µM, partner dose 0.001 µM) | 77.3%
15 | O=C(/C=C/c1cccnc1)NCCCCC1CCN(C(=O)c2ccccc2)CC1 + CCCCCCCCc1ccc(CCC(N)(CO)CO)cc1 [fingolimod] (first compound 0.01 µM, partner dose 2 µM) | 91%
16 | CC1(C)CCC(c2ccc(Cl)cc2)=C(CN2CCN(c3ccc(C(=O)NS(=O)(=O)c4ccc(N[C@H](CCN5CCOCC5)CSc5ccccc5)c(S(=O)(=O)C(F)(F)F)c4)cc3)CC2)C1 + CCN(CC)CCNC(=O)c1c(C)[nH]c(/C=C2\C(=O)Nc3ccc(F)cc32)c1C [sunitinib] (first compound 0.4 µM, partner dose 0.4 µM) | 44.8%
17 | CC1(C)CCC(c2ccc(Cl)cc2)=C(CN2CCN(c3ccc(C(=O)NS(=O)(=O)c4ccc(N[C@H](CCN5CCOCC5)CSc5ccccc5)c(S(=O)(=O)C(F)(F)F)c4)cc3)CC2)C1 + C[C@@H](N)c1ccc(C(=O)Nc2ccnc3[nH]ccc23)cc1 [RKI983] (first compound 0.4 µM, partner dose 0.4 µM) | 35.5%
18 | CC1(C)CCC(c2ccc(Cl)cc2)=C(CN2CCN(c3ccc(C(=O)NS(=O)(=O)c4ccc(N[C@H](CCN5CCOCC5)CSc5ccccc5)c(S(=O)(=O)C(F)(F)F)c4)cc3)CC2)C1 + O=C(O)c1ccc(-c2c[nH]c3ncc(-c4ccccc4)cc23)cc1C1CCCC1 [GSK650394] (first compound 0.4 µM, partner dose 0.16 µM) | 56.8%
19 | O=C(/C=C/c1cccnc1)NCCCCC1CCN(C(=O)c2ccccc2)CC1 + C[C@@H](Oc1cc(-c2cnn(C3CCNCC3)c2)cnc1N)c1c(Cl)ccc(F)c1Cl [Crizotinib] (first compound 0.01 µM, partner dose 0.2 µM) | 104%
20 | O=C(/C=C/c1cccnc1)NCCCCC1CCN(C(=O)c2ccccc2)CC1 + Cn1cnc2c(F)c(Nc3ccc(Br)cc3Cl)c(C(=O)NOCCO)cc21 [selumetinib] (first compound 0.01 µM, partner dose 0.015 µM) | 95.6%
21 | CC1(C)CCC(c2ccc(Cl)cc2)=C(CN2CCN(c3ccc(C(=O)NS(=O)(=O)c4ccc(N[C@H](CCN5CCOCC5)CSc5ccccc5)c(S(=O)(=O)C(F)(F)F)c4)cc3)CC2)C1 + CN(C)S(=O)(=O)c1ccc2c(c1)/C(=C/c1cc3c([nH]1)CCCC3)C(=O)N2 [SU6656] (first compound 0.4 µM, partner dose 0.4 µM) | 34.3%
22 | CC1(C)CCC(c2ccc(Cl)cc2)=C(CN2CCN(c3ccc(C(=O)NS(=O)(=O)c4ccc(N[C@H](CCN5CCOCC5)CSc5ccccc5)c(S(=O)(=O)C(F)(F)F)c4)cc3)CC2)C1 + O=C(CCCCCCC(=O)Nc1ccccc1)NO [vorinostat] (first compound 0.4 µM, partner dose 0.08 µM) | 49%
23 | O=C(/C=C/c1cccnc1)NCCCCC1CCN(C(=O)c2ccccc2)CC1 + CN(C)S(=O)(=O)c1ccc2c(c1)/C(=C/c1cc3c([nH]1)CCCC3)C(=O)N2 [SU6656] (first compound 0.01 µM, partner dose 0.4 µM) | 87.9%
24 | CC1(C)CCC(c2ccc(Cl)cc2)=C(CN2CCN(c3ccc(C(=O)NS(=O)(=O)c4ccc(N[C@H](CCN5CCOCC5)CSc5ccccc5)c(S(=O)(=O)C(F)(F)F)c4)cc3)CC2)C1 + COc1ccc(C2=N[C@@H](c3ccc(Cl)cc3)[C@@H](c3ccc(Cl)cc3)N2C(=O)N2CCNC(=O)C2)c(OC(C)C)c1 [Nutlin-3] (first compound 0.4 µM, partner dose 0.1 µM) | 36.4%
25 | CC1(C)CCC(c2ccc(Cl)cc2)=C(CN2CCN(c3ccc(C(=O)NS(=O)(=O)c4ccc(N[C@H](CCN5CCOCC5)CSc5ccccc5)c(S(=O)(=O)C(F)(F)F)c4)cc3)CC2)C1 + CCCS(=O)(=O)Nc1ccc(F)c(C(=O)c2c[nH]c3ncc(Cl)cc23)c1F [PLX4720] (first compound 0.4 µM, partner dose 0.08 µM) | 54.7%
26 | O=C(/C=C/c1cccnc1)NCCCCC1CCN(C(=O)c2ccccc2)CC1 + Clc1ccc(Nc2nnc(Cc3ccncc3)c3ccccc23)cc1 [vatalanib] (first compound 0.01 µM, partner dose 2 µM) | 86.3%
27 | CC1(C)CCC(c2ccc(Cl)cc2)=C(CN2CCN(c3ccc(C(=O)NS(=O)(=O)c4ccc(N[C@H](CCN5CCOCC5)CSc5ccccc5)c(S(=O)(=O)C(F)(F)F)c4)cc3)CC2)C1 + CO[C@H]1C[C@@H]2CC[C@@H](C)[C@@](O)(O2)C(=O)C(=O)N2CCCC[C@H]2C(=O)O[C@H]([C@H](C)C[C@@H]2CC[C@@H](OCCO)[C@H](OC)C2)CC(=O)[C@H](C)/C=C(\C)[C@@H](O)[C@@H](OC)C(=O)[C@H](C)C[C@H](C)/C=C/C=C/C=C/1C [everolimus] (first compound 0.4 µM, partner dose 0.02 µM) | 37.6%
